Data from paper PMC12136788.
Some of the results follow.

T1: UNK ZnF1-6 (called full-length) (human, UniProt Q9C0B0 30-357)
T1 sequence: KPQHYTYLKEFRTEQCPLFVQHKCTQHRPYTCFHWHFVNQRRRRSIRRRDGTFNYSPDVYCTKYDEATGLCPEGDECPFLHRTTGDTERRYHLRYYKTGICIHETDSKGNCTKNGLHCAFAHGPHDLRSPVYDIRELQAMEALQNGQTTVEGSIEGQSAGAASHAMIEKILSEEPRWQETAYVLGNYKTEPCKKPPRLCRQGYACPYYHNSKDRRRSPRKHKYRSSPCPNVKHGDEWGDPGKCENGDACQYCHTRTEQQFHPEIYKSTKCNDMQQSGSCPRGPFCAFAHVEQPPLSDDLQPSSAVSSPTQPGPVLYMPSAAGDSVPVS

B1: chr10:113908677:113908778:+|3pUTR|ENSG00000196865|unk|FALSE|bound_elsewhere (ssRNA)
RNA: GGGAGUUCUACAGUCCGACGAUCAGCUAUGCUCCUUACUUACUUCUUUUAUUAUAAACAAAUUCCUUUGCUUUGGCUGAUACUAGCUGAGUCAUUGAUCAUCAUUGGUACCAUGAUAUUGUAAUCUAUGCUGCUAUUUGGCACCAACAGAGGAUUGAGCAUCA
B2: chr12:57626096:57626197:-|3pUTR|ENSG00000135454|msi1|total|mutant (ssRNA)
RNA: GGGAGUUCUACAGUCCGACGAUCGUGUCUCUGCAAUGCUGUGGGCACAAAAGAAGGGGCACCAGAGUCCCUGUGCAAACACCCCGACUCACUUCAUGGAUUCCAAAGCUCUCAGCUUCAUUUUAUCCGUUACGUCCGGUAAGGCAACAGAGGAUUGAGCAUCA
B3: chr4:55870735:55870847:+|CDS|ENSG00000090989|unk|FALSE|bound_elsewhere (ssRNA)
RNA: GGGAGUUCUACAGUCCGACGAUCGGCAUCUGAAAAACAAGUCAACAUCCUGAUGAAAUUGCUAGAUGAGGCUCUAAAGGAGGUAGAUCAGAUUGAAUUGAAACUGAGCAGUUAUGAGGAAAUGCUCCAAAGUGUAAAAGAACACAACAGAGGAUUGAGCAUCA
B4: chr17:35273046:35273147:+|3pUTR|ENSG00000166750|unk|FALSE|unique (ssRNA)
RNA: GGGAGUUCUACAGUCCGACGAUCAUUCCUAAGAGCAGAAGACUGCAAAAUAGUAAAUAUAUACCCAAAAGGGUCUAAUGGAUUAGUUUUUGGCAUAUCAGCACAUGAUAAUACUAUGAAGCCAUAAAAAAGAGAGAUCUCUAUCAACAGAGGAUUGAGCAUCA
B5: chr13:52036708:52036809:-|3pUTR|ENSG00000197168|unk|total|mutant (ssRNA)
RNA: GGGAGUUCUACAGUCCGACGAUCGCCGAACUUUUGAAUACCGCCAUUAAUAUUUUUACUUUAAAGUUUCUAUUAAGAAAUCUCCGGCCGGGCAGUCUCAUCACUUUGGGAGGCCAAGGCAGGCAGAUCAUGAGGUCAGGAGUUCAACAGAGGAUUGAGCAUCA
B6: chr13:37103258:37104242:-|three_prime_utr|ENSG00000180138|control|control|control (ssRNA)
RNA: GGGAGUUCUACAGUCCGACGAUCAAUGAGGAACAGAAGAAGCAGAGCAGAUGAUUCGAGCAGCAUUUGUUUCUCCCCACAUCUAGAAAUUGUAGUUCAUAUGUACACCAGCUAGUGGCUGUGAACAACCAUUUAGUUGGUGUACAACAGAGGAUUGAGCAUCA
B7: chr18:58535911:58536012:-|CDS|ENSG00000198796|msi1|FALSE|unique (ssRNA)
RNA: GGGAGUUCUACAGUCCGACGAUCUCUGACCUGCCCUAAAAUCCUAGAGUCCUCUGUAGAUCCCAUUGAUGAGAUAAGUGUGAUAGAGUACACCAGGGCUGGAAAACCAGAGCCCUCUGAAACCACACCACAGGGCGCCAGAGACAACAGAGGAUUGAGCAUCA
B8: chr15:31475397:31483293:-|three_prime_utr|ENSG00000169918|control|control|control (ssRNA)
RNA: GGGAGUUCUACAGUCCGACGAUCUGUACGUGUUUGGUCAAACGUUCCUAAUGGUGCCUGAACCUACACUGACGCCACUCAGGUAGUAGACGGAUAGGAAACAAGUCAUACUGUUGGAAGUGGGUGUGCUAGCCUAGCAUCUGCCAACAGAGGAUUGAGCAUCA
B9: chr3:142163631:142163732:-|3pUTR|ENSG00000175066|unk|FALSE|unique (ssRNA)
RNA: GGGAGUUCUACAGUCCGACGAUCCCCAAAGUGCUGGGAUUGCAGCCGUGAACCACUGCACCCAGCCAAUGGGUGUAAUUUCAUAGGAAAUAAUUCUUUUUGUCAGAAUGUACUGAAUUGUAAUAUUAAUACCUGAAAAUUUGUCAACAGAGGAUUGAGCAUCA
B10: chr5:40945159:40945374:+|CDS|ENSG00000112936|unk|FALSE|unique (ssRNA)
RNA: GGGAGUUCUACAGUCCGACGAUCGAAUUUUACAAUAGUACUUGGUCUUAUGUAAAACAUACGUCGACAGAACACACAUCAUCUAGUCGGAAGCGCUCCUUUUUUAGAUCUUCAUCAUCUUCUUCACGCAGUUAUACUUCACAUCAACAGAGGAUUGAGCAUCA
B11: chr7:56063203:56063317:+|3pUTR|ENSG00000146731|unk|total|mutant (ssRNA)
RNA: GGGAGUUCUACAGUCCGACGAUCCCCAUAUGAAAAAAGGAGAGAACACUGGCAUCUGUUGAAAUUUGGAAGUUCUGAAAUUACCGUAUUUUUAAAAAUUGCACUGAAGUGUAUACACAUAAAGCAGGUCUUUUAUCCAGUGAACAACAGAGGAUUGAGCAUCA
B12: chr8:41543231:41543332:+|3pUTR|ENSG00000147536|msi1|FALSE|unique (ssRNA)
RNA: GGGAGUUCUACAGUCCGACGAUCAAACCAUUAUUAAAUUUCCAUUCUGCAGCAGAAGGCACCUCUGGACGGCUCCCGGCUUGUAGUUUAAUGAAGUAUGUGCUCCCUGCUGUUAACCCGCAGCCCUCCCCAACUCUCCAGCAGCAACAGAGGAUUGAGCAUCA
B13: chr4:173322470:173322571:+|3pUTR|ENSG00000109586|msi1|FALSE|bound_elsewhere (ssRNA)
RNA: GGGAGUUCUACAGUCCGACGAUCUGUAGCAUUCACUCCCUUACCUACUGGCAUUCCCAGUGCCCUCUGUCCAUACCUACUUCUAGGAUUGCAAAGGAGUCUUCCAACUAGAGAAAAAUUGUCCACUGACAUUUGGGAUUUACUCAACAGAGGAUUGAGCAUCA
B14: chr16:30351896:30351997:-|3pUTR|ENSG00000169217|unk|FALSE|unique (ssRNA)
RNA: GGGAGUUCUACAGUCCGACGAUCCUGGCACCCUCCACCUCCACGCCCCACCAGCAUUGCCUUACGCCUCCCUUGCCCCACGUUAGAUGGUUUCUUCCGGUUUUGCACUCUGGCUGCCCCUUGGAGUCUCCUGGGGAGCUGUAACAACAGAGGAUUGAGCAUCA
B15: chr12:293013:293114:-|CDS|ENSG00000073614|unk|FALSE|bound_elsewhere (ssRNA)
RNA: GGGAGUUCUACAGUCCGACGAUCACUAAAAGUGAAAGGAAAGGACUCUUCAGAGAAGAAACGGAAACGGAAGCUAGAAAAGGUAGAGCAACUUUUUGGAGAAGGAAAACAGAAGUCCAAGGAGUUAAAGAAAAUGGACAAACCCAACAGAGGAUUGAGCAUCA
B16: chr10:87753454:87753555:-|3pUTR|ENSG00000138138|msi1|FALSE|bound_elsewhere (ssRNA)
RNA: GGGAGUUCUACAGUCCGACGAUCCGUUUAAUGUGAAUUAUAUGUGAAUUUUUUUCAAAAUUUUACUAACCAGAAUUCUGUUAUAGGCACCUAACCACGCAGCAUGAGGAAAACGGCACAACACAAUCUUGAGGUGCCUUCUGACAACAGAGGAUUGAGCAUCA
B17: chr3:100713726:100713879:+|CDS|ENSG00000114354|unk|FALSE|unique (ssRNA)
RNA: GGGAGUUCUACAGUCCGACGAUCACUUGGGGAGGAUAUUCGGCGAAUUCCUAUUCAUAAUGAAGAUAUUACUUAUGAUGAAUUAGUGCUAAUGAUGCAACGAGUUUUCAGAGGAAAACUUCUGAGUAAUGAUGAAGUAACAAUCAACAGAGGAUUGAGCAUCA
B18: chr2:206311781:206311882:+|3pUTR|ENSG00000204186|unk|total|mutant (ssRNA)
RNA: GGGAGUUCUACAGUCCGACGAUCCCGUGUUCCGAGUCCUUUCAUUUUAAGAUUCAGAAACAGCCUUUGUCCAACAUUUUCUGCCGAAGAACUUCAUCUUAAUUUAUGUCACAAAAUAAUUCCGCACCGUAUACCGAAUUUUGUCAACAGAGGAUUGAGCAUCA
B19: chr13:24435137:24435247:-|CDS|ENSG00000102699|unk|FALSE|unique (ssRNA)
RNA: GGGAGUUCUACAGUCCGACGAUCAAACCAACAGCAACUGAACCACUAUUUAAGAAAGUCAGUCCAUGGGAAACAUCUACUUCUAGCUUUUUUCCUAUUUUGGCUCCGGCCGUUGGUUCCUAUCUUCCCCCGACUGCCCGCGCUCAACAGAGGAUUGAGCAUCA
B20: chr3:149369464:149369565:-|3pUTR|ENSG00000169908|msi1_unk|FALSE|overlapping (ssRNA)
RNA: GGGAGUUCUACAGUCCGACGAUCAAAUAACAUUCCAAUCACUAUUGUAUAUAUGUGCAUGUAUUUUUUAAAUUAAAGAUGUCUAGUUGCUUUUUAUAAGACCAAGAAGGAGAAAAUCCGACAACCUGGAAAGAUUUUUGUUUUCAACAGAGGAUUGAGCAUCA
B21: chr1:235448940:235449205:-|3pUTR|ENSG00000162885|unk|FALSE|unique (ssRNA)
RNA: GGGAGUUCUACAGUCCGACGAUCAAUAGAGAAUUCCAUUAAAACUAGUCUUAUGACAGAUAUUAACUGUGUUCAGAUUUUAUUAGGCUAGCUAGUUUCUUUCUAUUUAAUAUUUAAAUCUUAUCAUGAAAUGCAGUGAUGAGCCAACAGAGGAUUGAGCAUCA
B22: chr6:39540002:39540221:-|CDS|ENSG00000164627|control|control|control (ssRNA)
RNA: GGGAGUUCUACAGUCCGACGAUCCCACUUGGCUGGCAUGGAUAGACGUGAAUUCAGACAGUCCCAGAGCCCACCCUUCCGCCUAGGAAACCCAGAAGAAGGUCAAAGAAUGCGACUAUCCUCAGCUCCCUCACAGGCCCAGGACAACAGAGGAUUGAGCAUCA

Target: T1, UNK ZnF1-6 (called full-length)
Assay: nsRBNS (natural sequence RNA bind-n-seq); RBNS binding buffer (assumed for nsRBNS): 25 mM Tris pH 7.5, 150 mM KCl, 3 mM MgCl2, 0.01% Triton X-100, 500 ug/ml BSA, 20 U/ml SUPERase-In, 4 C; UNK is unkempt and MSI1 is Musashi-1; names of the RNAs are library labels; protein concentration not given here; high values mean tight binding

| Binder | binding signal |
| --- | --- |
| B1 | 3.85 enrichment R |
| B2 | 0.682 enrichment R |
| B3 | 0.478 enrichment R |
| B4 | 2.71 enrichment R |
| B5 | 2.85 enrichment R |
| B6 | 1.16 enrichment R |
| B7 | 0.631 enrichment R |
| B8 | 0.486 enrichment R |
| B9 | 0.843 enrichment R |
| B10 | 2.44 enrichment R |
| B11 | 0.55 enrichment R |
| B12 | 11.4 enrichment R |
| B13 | 1.94 enrichment R |
| B14 | 0.857 enrichment R |
| B15 | 0.672 enrichment R |
| B16 | 0.781 enrichment R |
| B17 | 1.32 enrichment R |
| B18 | 0.453 enrichment R |
| B19 | 1.32 enrichment R |
| B20 | 2.91 enrichment R |
| B21 | 35.6 enrichment R |
| B22 | 0.794 enrichment R |
